According to the CheMixHub viscosity set:
Further values from the same series stand in other lists.

Experiment: xn = mol fraction of the nth substance listed

C1COCCO1 + O
Conditions	viscosity [mPa·s]
306.15 K, 101 kPa, x1 = 0.1114	1.372
306.15 K, 101 kPa, x1 = 0.1433	1.482
306.15 K, 101 kPa, x1 = 0.1726	1.55
306.15 K, 101 kPa, x1 = 0.2065	1.588
306.15 K, 101 kPa, x1 = 0.2501	1.6
306.15 K, 101 kPa, x1 = 0.3029	1.596
306.15 K, 101 kPa, x1 = 0.356	1.558
306.15 K, 101 kPa, x1 = 0.4203	1.481
306.15 K, 101 kPa, x1 = 0.4996	1.389
306.15 K, 101 kPa, x1 = 0.5367	1.349
306.15 K, 101 kPa, x1 = 0.5999	1.286
306.15 K, 101 kPa, x1 = 0.6479	1.24
306.15 K, 101 kPa, x1 = 0.7309	1.172
306.15 K, 101 kPa, x1 = 0.7621	1.15
306.15 K, 101 kPa, x1 = 0.7953	1.128
306.15 K, 101 kPa, x1 = 0.8686	1.086
306.15 K, 101 kPa, x1 = 0.9092	1.066
306.15 K, 101 kPa, x1 = 0.976	1.038
306.15 K, 101 kPa, x2 = 0.0145	1.035
307.15 K, 101.32 kPa, x1 = 0.02221	0.8448
307.15 K, 101.32 kPa, x1 = 0.04863	0.9971
307.15 K, 101.32 kPa, x1 = 0.08057	1.157
307.15 K, 101.32 kPa, x1 = 0.12	1.31
307.15 K, 101.32 kPa, x1 = 0.1698	1.448
307.15 K, 101.32 kPa, x1 = 0.2347	1.548
307.15 K, 101.32 kPa, x1 = 0.2949	1.529
307.15 K, 101.32 kPa, x1 = 0.323	1.508
307.15 K, 101.32 kPa, x1 = 0.3802	1.449
307.15 K, 101.32 kPa, x1 = 0.4499	1.394
307.15 K, 101.32 kPa, x1 = 0.5367	1.304
307.15 K, 101.32 kPa, x1 = 0.6479	1.158
307.15 K, 101.32 kPa, x1 = 0.7953	1.043
307.15 K, 101.32 kPa, x1 = 0.8686	1.017
307.15 K, 101.32 kPa, x1 = 0.9529	0.9956
308.15 K, 101.33 kPa, x1 = 0.0999	1.273
308.15 K, 101.33 kPa, x1 = 0.1999	1.527
308.15 K, 101.33 kPa, x1 = 0.2998	1.537
308.15 K, 101.33 kPa, x1 = 0.3982	1.445
308.15 K, 101.33 kPa, x1 = 0.4981	1.328
308.15 K, 101.33 kPa, x1 = 0.5981	1.218
308.15 K, 101.33 kPa, x1 = 0.6997	1.131
308.15 K, 101.33 kPa, x1 = 0.7996	1.063
308.15 K, 101.33 kPa, x1 = 0.9	1.02
309.15 K, 101 kPa, x1 = 0.00206	0.7208
309.15 K, 101 kPa, x1 = 0.00628	0.7467
309.15 K, 101 kPa, x1 = 0.01516	0.7958
309.15 K, 101 kPa, x1 = 0.03482	0.8999
309.15 K, 101 kPa, x1 = 0.05303	1.002
309.15 K, 101 kPa, x1 = 0.07366	1.11
309.15 K, 101 kPa, x1 = 0.08413	1.164
309.15 K, 101 kPa, x1 = 0.1114	1.279
309.15 K, 101 kPa, x1 = 0.1433	1.377
309.15 K, 101 kPa, x1 = 0.1726	1.436
309.15 K, 101 kPa, x1 = 0.2065	1.481
309.15 K, 101 kPa, x1 = 0.2501	1.49
309.15 K, 101 kPa, x1 = 0.3029	1.489
309.15 K, 101 kPa, x1 = 0.356	1.458
309.15 K, 101 kPa, x1 = 0.4203	1.391
309.15 K, 101 kPa, x1 = 0.4996	1.312
309.15 K, 101 kPa, x1 = 0.5367	1.273
309.15 K, 101 kPa, x1 = 0.5999	1.212
309.15 K, 101 kPa, x1 = 0.6479	1.172
309.15 K, 101 kPa, x1 = 0.7309	1.114
309.15 K, 101 kPa, x1 = 0.7621	1.094
309.15 K, 101 kPa, x1 = 0.7953	1.074
309.15 K, 101 kPa, x1 = 0.8686	1.036
309.15 K, 101 kPa, x1 = 0.9092	1.017
309.15 K, 101 kPa, x1 = 0.976	0.9913
309.15 K, 101 kPa, x2 = 0.0145	0.988
310.15 K, 101.32 kPa, x1 = 0.02221	0.7849
310.15 K, 101.32 kPa, x1 = 0.04863	0.9238
310.15 K, 101.32 kPa, x1 = 0.08057	1.071
310.15 K, 101.32 kPa, x1 = 0.12	1.213
310.15 K, 101.32 kPa, x1 = 0.1698	1.334
310.15 K, 101.32 kPa, x1 = 0.2347	1.416
310.15 K, 101.32 kPa, x1 = 0.2949	1.399
310.15 K, 101.32 kPa, x1 = 0.323	1.381
310.15 K, 101.32 kPa, x1 = 0.3802	1.333
310.15 K, 101.32 kPa, x1 = 0.4499	1.272
310.15 K, 101.32 kPa, x1 = 0.5367	1.194
310.15 K, 101.32 kPa, x1 = 0.6479	1.082
310.15 K, 101.32 kPa, x1 = 0.7953	0.9696
310.15 K, 101.32 kPa, x1 = 0.8686	0.9523
310.15 K, 101.32 kPa, x1 = 0.9529	0.9309
311.15 K, 101 kPa, x1 = 0.00206	0.6977
311.15 K, 101 kPa, x1 = 0.00628	0.7177
311.15 K, 101 kPa, x1 = 0.01516	0.7578
311.15 K, 101 kPa, x1 = 0.03482	0.8596
311.15 K, 101 kPa, x1 = 0.05303	0.9564
311.15 K, 101 kPa, x1 = 0.07366	1.06
311.15 K, 101 kPa, x1 = 0.08413	1.107
311.15 K, 101 kPa, x1 = 0.1114	1.219
311.15 K, 101 kPa, x1 = 0.1433	1.31
311.15 K, 101 kPa, x1 = 0.1726	1.37
311.15 K, 101 kPa, x1 = 0.2065	1.409
311.15 K, 101 kPa, x1 = 0.2501	1.426
311.15 K, 101 kPa, x1 = 0.3029	1.416
311.15 K, 101 kPa, x1 = 0.356	1.388
311.15 K, 101 kPa, x1 = 0.4203	1.339
311.15 K, 101 kPa, x1 = 0.4996	1.254
311.15 K, 101 kPa, x1 = 0.5367	1.226
311.15 K, 101 kPa, x1 = 0.5999	1.168
311.15 K, 101 kPa, x1 = 0.6479	1.13
311.15 K, 101 kPa, x1 = 0.7309	1.078
311.15 K, 101 kPa, x1 = 0.7621	1.063
311.15 K, 101 kPa, x1 = 0.7953	1.042
